# Measurements taken from PubChem BioAssay AID602329 (Broad Institute, 2012).
# Where “and” joins values, the source holds several entries; their conditions need not be identical. Identical values can stand only once. In all, about 360,000 compounds went through this assay and about 510 (0.14%) were called active. The shares of active, inactive and inconclusive entries below differ from those in the screen.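 How the source made its calls: active means mean normalized replicate activity at least 40 and at least half of replicates scoring 40 or more; inconclusive means only one of the two criteria met; inactive means mean below 40 and under half of replicates reaching 40.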
# Molecular target: DNA repair and recombination protein RAD54-like (Homo sapiens) (UniProt Q92698)
# Chain of UniProt Q92698 (Q92698 whole entry, looked up): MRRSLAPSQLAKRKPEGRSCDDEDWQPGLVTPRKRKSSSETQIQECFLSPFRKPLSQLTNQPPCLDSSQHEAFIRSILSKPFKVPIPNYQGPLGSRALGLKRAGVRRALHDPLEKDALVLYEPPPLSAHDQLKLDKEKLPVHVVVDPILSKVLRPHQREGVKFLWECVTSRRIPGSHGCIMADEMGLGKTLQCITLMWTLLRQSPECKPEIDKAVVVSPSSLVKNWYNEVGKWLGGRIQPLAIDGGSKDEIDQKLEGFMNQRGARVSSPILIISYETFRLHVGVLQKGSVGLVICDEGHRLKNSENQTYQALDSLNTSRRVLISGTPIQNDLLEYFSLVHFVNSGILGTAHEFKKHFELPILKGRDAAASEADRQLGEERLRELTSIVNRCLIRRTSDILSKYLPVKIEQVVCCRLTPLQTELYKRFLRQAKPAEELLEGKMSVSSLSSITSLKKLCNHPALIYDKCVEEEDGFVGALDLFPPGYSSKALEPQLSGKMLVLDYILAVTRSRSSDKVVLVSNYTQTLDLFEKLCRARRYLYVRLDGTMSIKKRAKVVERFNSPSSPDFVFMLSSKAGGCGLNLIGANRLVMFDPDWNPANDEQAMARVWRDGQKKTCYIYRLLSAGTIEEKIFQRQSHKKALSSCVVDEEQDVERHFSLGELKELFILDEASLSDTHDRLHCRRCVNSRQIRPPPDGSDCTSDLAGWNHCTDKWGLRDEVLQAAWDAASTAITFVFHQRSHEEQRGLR
# Experiment: RAD54 Holliday junction migration blockers – biochemical, fluorescence, single point, primary screen (AID 602329);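 further: 0% = median of neutral control wells and 100% = median of positive control wells; inhibitors cause a drop in the FAM fluorescence signal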
# Settings: RAD54 Holliday junction branch migration, FAM/BHQ fluorescence; at 10.4 µM; hits give high values
row,Structure (SMILES),inhibition
1,Oc1ccccc1-c1nc(NCCN2CCOCC2)c2ccccc2n1,inconclusive: 43.1%
2,CO[C@@H]1CN(C)C(=O)c2cc(NC(C)=O)ccc2OC[C@H](C)N(Cc2ccccc2C(=O)O)C[C@@H]1C,inconclusive: 21.9%
3,CC1CCc2c(sc3c2C2=NS(=O)(=O)CCN2C=N3)C1 (stereo not given),inconclusive: 32.9%
4,COc1ccc2c(c1)O/C(=C\c1sccc1C)C2=O,inconclusive: 33.1%
5,CCOC(=O)c1ccc(-c2ccc(C(=O)Nc3cccnc3)o2)cc1,inconclusive: 31.7%
6,C#CCOCCOCCOCCNc1nc(N2CCN(C(=O)CCCCCCCCCCNC(=O)[C@@H](CCC(=O)O)n3cc(CCCCCN)nn3)CC2)nc(N2CCN(C(=O)CCCCCCCCCCNC(=O)[C@H](CCCCN)n3cc(C[C@@H](C)CC)nn3)CC2)n1,inconclusive: 25.8%
7,CCn1c(CCn2c3ccccc3c3ccccc32)n[nH]c1=S,inactive: 0.666%
8,Cc1noc(C)c1NC(=O)Nc1ccc2c(c1)C(=O)N([C@@H](C)CO)C[C@@H](C)[C@H](CN(C)C(=O)Nc1cccc3ccccc13)O2,inconclusive: 27.2%
9,Cn1c(SCC(=O)c2cc(Cl)c(Cl)s2)nnc1-c1ccco1,inactive: -4.35%
10,Cc1ccc(S(=O)(=O)N(C)C[C@@H]2Oc3ccc(NC(=O)NC4CCCCC4)cc3CC(=O)N([C@H](C)CO)C[C@@H]2C)cc1,inconclusive: 38.2%
11,NNC(=O)c1oc2nc(-c3cccs3)cc(-c3ccco3)c2c1N,inconclusive: 45.9%
12,N=C1/C(=C\c2ccc(OC(=O)c3ccc(F)cc3)cc2)C(=O)N=C2SC(N3CCCC3)=NN12,inactive: 8.79%
13,Cc1ccc(OCC(=O)Nc2cccc(-c3nnc(-c4ccccc4)o3)c2)c(C)c1,inconclusive: 29.2%
14,Cc1ccc2nc3c(c(Nc4ccc5c(c4)OCCO5)c2c1)CCC3,active: 60.5%
15,CCOc1ccc2[nH]c3c(NCCN(C)C)ncnc3c2c1,inconclusive: 48.9%
16,CN1CCN(C(=O)C[C@H]2C[C@@H]3c4cc(NC(=O)Cc5ccncc5)ccc4O[C@@H]3[C@@H](CO)O2)CC1,inconclusive: 26.3%
17,O=C(NCCCN1CCCC1)c1cc2c(Cl)nc3ccccc3c2s1,inconclusive: 40.3%
18,COc1ccc(OCCSc2nnc(CCNC(=O)c3ccc(OC)cc3)n2C)cc1,inactive: -0.14%
19,CC(C)NC1CCC(Nc2ccnc3cc(Cl)ccc23)CC1 (stereo not given),inconclusive: 49.8%
20,COc1ccc(C2c3[nH]c4ccccc4c3C[C@H]3C(=O)N(c4ccccc4C(=O)N4CCC(C(=O)O)CC4)C(=O)N23)cc1 (stereo not given in full),inactive: -5.4%
21,Cn1cnc(S(=O)(=O)N2C[C@@H](O)COC[C@@H]3O[C@@H](CC(=O)NC4CCCC4)CC[C@H]32)c1,inactive: -1.39%
22,Cc1ccc2nc(N=C(N)N)nc(C)c2c1,inconclusive: 44.3%
23,CCc1ccc(/C=N/NC(=S)NCCc2ccccc2)cc1,inactive: -3.62%
24,O=C(C[C@H]1C=C[C@@H](NC(=O)Nc2cccc(F)c2)[C@H](CO)O1)NCC1CCCCC1,inactive: -0.771%
25,COc1ccc(CN(C)C[C@H]2OCCCC[C@H](C)Oc3ccc(NC(=O)Cc4ccccc4)cc3C(=O)N([C@@H](C)CO)C[C@@H]2C)cc1,inactive: 2.75%
26,CCCN(CCC)c1nc(-c2ccccn2)nc2ccccc12,active: 89.6%
27,CCOCCCNC(=S)Nc1ccc2nc(N3CCN(CC)CC3)cc(C)c2c1,inconclusive: 47.6%
28,Cc1ccnc(SCC(=O)Nc2sc3c(c2C#N)CCC(C(C)(C)C)C3)n1 (stereo not given),inconclusive: 43.2%

row,Structure (SMILES),inhibition
1,Cc1ccc2nc3c(c(N)c2c1)CCN3C,active: 61.1%
2,COc1ccccc1Cn1c(=S)[nH]c2ccccc2c1=O,inactive: 2.7%
3,Cc1c(O)c(CN(C)C)cc2c1oc(=O)c1ccccc12,inconclusive: 43.9%
4,CCCCCCCCCCCCCCCC[n+]1ccccc1,active: 72.2% and active: 52.6% and active: 55.2%
5,CCN1CCN(c2cc(C)c3cc(NC(=S)N4CC(C)CC(C)C4)ccc3n2)CC1 (stereo not given),inconclusive: 44.7%
6,COc1ccccc1C1=NOC(Cn2c(NCCCO)nc3c2c(=O)n(C)c(=O)n3C)C1 (stereo not given),inconclusive: 28.1%
7,COCC(=O)Nc1ccc2c(c1)[C@H]1C[C@@H](CC(=O)NCc3ccccc3F)O[C@H](CO)[C@H]1O2,inconclusive: 25.8%
8,CCN1/C(=C/c2ccc3ccccc3[n+]2CC)C=Cc2ccccc21,active: 70.7%
9,O=C(COc1ccc2c(c1)oc(=O)c1ccccc12)NCCCN1CCOCC1,inconclusive: 45.2%
10,N/C(=N\OC(=O)c1cccc2ccccc12)c1ccccn1,inconclusive: 23.8%
11,CC(C)CSc1ncc(-c2cccc(C(F)(F)F)c2)cn1,inconclusive: 24.9%
12,CN(C)CCNC(=O)c1cccc(-c2cnc3c(NC=O)cc(-c4cccc(F)c4)cn23)c1,inconclusive: 49.3%
13,CC1CCCCN1CCNC(=O)c1cc2c(=O)n(C)c3ccccc3c2n1C (stereo not given),active: 56.7%
14,Cc1cc2nc(N=C(N)N)nc(C)c2cc1C,inconclusive: 46.6%
15,CC(=O)c1sc(NC(=O)C2CCCN2S(=O)(=O)c2ccccc2F)nc1C (stereo not given),inactive: 0.208%
16,COc1ccc(CN(C)C[C@@H]2Oc3ccc(NC(=O)Nc4ccc5c(c4)OCO5)cc3C(=O)N([C@H](C)CO)C[C@H]2C)cc1,active: 66.8%
17,COc1ccc(S(=O)(=O)Nc2ccc3c(c2)[C@@H]2C[C@H](CC(=O)NCC4CC4)O[C@H](CO)[C@@H]2O3)cc1,inconclusive: 30.2%
18,CC=Cc1ccc2n(c1=O)C[C@H]1[C@H](CO)[C@@H](C(=O)N3CCC(Cc4ccccc4)CC3)N(CC)[C@@H]21 (mixture of isomers),inactive: 7.44%
19,COc1ccc(S(=O)(=O)N(C)C[C@@H]2Oc3ccc(NC(=O)Nc4ccc(C(F)(F)F)cc4)cc3C(=O)N([C@H](C)CO)C[C@H]2C)cc1,inconclusive: 25.9%
20,COc1ccccc1C(=O)Nc1ccc2c(c1)C(=O)N(C)C[C@@H](OC)[C@H](C)CN(C)[C@@H](C)CO2,inactive: 1.34%
21,COc1ccc2c(c1)N(C)/C(=C/c1cccc[n+]1C)S2,active: 51.1%
22,CN(C)CC(=O)Nc1ccc2c(c1)[C@@H]1C[C@H](CC(=O)NC3CCCCC3)O[C@@H](CO)[C@@H]1O2,inconclusive: 26.8%
23,C[C@@H]1CN([C@H](C)CO)C(=O)Cc2cc(NC(=O)Nc3ccccc3)ccc2O[C@H]1CN(C)S(=O)(=O)c1ccc(Cl)cc1,inactive: -26.5%
24,Cc1ccc2nc3c(c(N)c2c1)CCN3c1ccccc1,active: 52.6%
25,Cc1ccccc1-c1ccc2c(c1)O[C@H](CN(C)C(=O)Nc1ccc(C(F)(F)F)cc1)[C@@H](C)CN([C@H](C)CO)S2(=O)=O,inactive: -4.59%
26,CCOC(=O)c1c(NC(C)=O)sc2c(OCC(O)CNC(C)(C)C)c(Br)ccc12 (stereo not given),inconclusive: 49.9%
27,CC(=O)Nc1cc(-c2ccc(N3CCN(C)CC3)cc2)cn2c(-c3ccc(S(C)(=O)=O)cc3)cnc12,active: 104%
